About 1,200 (2.5%) of roughly 48,000 compounds were called active. About 2% were inconclusive and are not listed.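 The calls were made as follows: active = activation of at least 60% and not above a set upper limit (about 1 call in 100 departs from these limits); inconclusive = activation of 40% to 60%, or above that upper limit; inactive = activation under 40%.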 This is one part of the list.
Biological target: Probable G-protein coupled receptor 32 (Homo sapiens) (UniProt O75388)
Assay: qHTS for Agonists of Human Resolvin D1 Receptor DRV1; also: 0% is about no effect
Settings: CHO-K1 GPR32 beta-arrestin PathHunter luminescence, 90 min; at 76.9 µM; active compounds read high; zero percent set by DMSO-only wells
Method in brief: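 Cells are plated overnight, treated with compounds in DMSO for 90 minutes at 37 °C, and developed with PathHunter detection reagent for 1 hour before luminescence is read; signal reflects beta-arrestin binding to GPR32 in engineered CHO-K1 cells.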

Chain of UniProt O75388 (O75388 whole entry, looked up): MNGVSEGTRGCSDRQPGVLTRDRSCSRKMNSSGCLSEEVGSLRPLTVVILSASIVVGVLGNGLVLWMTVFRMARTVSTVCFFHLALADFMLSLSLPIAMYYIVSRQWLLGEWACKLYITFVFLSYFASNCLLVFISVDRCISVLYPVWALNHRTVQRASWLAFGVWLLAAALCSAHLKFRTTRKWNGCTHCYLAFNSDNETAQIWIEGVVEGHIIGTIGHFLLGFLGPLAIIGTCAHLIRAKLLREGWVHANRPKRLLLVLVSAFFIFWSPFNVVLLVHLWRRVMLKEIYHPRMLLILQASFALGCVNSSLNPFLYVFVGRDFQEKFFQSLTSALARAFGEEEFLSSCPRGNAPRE

activation, inactive:
COc1ccc(C(=O)n2nc(-c3cccnc3)nc2NCc2ccccc2)cc1OC -7.34%
COc1ccc(CCNC(=O)C(=O)NCC(c2cccs2)S(=O)(=O)c2cccs2)cc1 (configuration not stated) 33.5%
CC(=O)N1CCCc2cc(S(=O)(=O)N3CCC(C(=O)Nc4c(C)cccc4C)CC3)ccc21 -2.78%
COc1cccc(-c2nc(SCC(=O)NCc3ccco3)c3c(=O)n(C)c(=O)n(C)c3n2)c1 19.6%
CC1CCN(C(=O)Cn2cc(SCC(=O)Nc3ccccc3)c3ccccc32)CC1 -11%
COc1ccc(Cn2c(=O)n(-c3ccc(OC)cc3)c(=O)c3c2c2cc(OC)ccc2n3C)cc1 -1.89%
CCOC(=O)c1noc2ncnc(N3CCN(c4cccc(C(F)(F)F)c4)CC3)c12 -29.4%
CCN(CC)S(=O)(=O)c1ccc2c(c1)c(=O)c(C(=O)NCc1ccccc1Cl)cn2C 27.3%
COc1ccc(-c2cc(C)no2)cc1S(=O)(=O)NCc1ccco1 -11.4%
O=C(CSc1c2c(nc3cc(Cl)ccc13)CCCC2)N1CCN(c2ccccc2)CC1 -34.7%
COc1ccc(-n2c(SCc3ccccc3F)nc3c([nH]c4ccccc43)c2=O)cc1OC -6.08%
COc1cc(NC(=O)c2c3c(nc4ccccc24)C(=O)N(C2CCCCC2)C3)cc(OC)c1 -12.9%
CCOC(=O)c1c(-c2ccc(C)cc2)csc1NC(=O)c1cc(=O)c2cc(C)cc(C)c2o1 -4.81%
CCOc1ccc(-c2nonc2NC(=O)c2oc3ccc(C)cc3c2C)cc1OCC -5.91%
Cc1ccc(S(=O)(=O)Cc2nc(-c3ccc(C(=O)NCc4ccccc4C)cc3)oc2C)cc1 -1.94%
COc1ccc(Cn2ccn(Cc3cccc(Cl)c3)c(=O)c2=O)cc1 -11.9%
CC(=O)c1ccc(NC(=O)C2=CC(c3ccc(C)cc3)=NS(=O)(=O)N2C)cc1 -5.79%
CCCn1cc(S(=O)(=O)c2ccc(OC)cc2)c(=O)c2cc(F)c(N3CCCC(C)C3)cc21 (configuration not stated) 1.55%
Cc1ccc(C(=O)Nc2nc3nc(-c4ccccc4)cc(=O)n3[nH]2)cc1 41.9%
O=C(COc1ccccc1F)Nc1c(C(=O)Nc2cccc(F)c2)oc2ccccc12 -5.9%
CCCCCOC(=O)CSc1nc2sc3c(c2c(=O)n1-c1ccccc1)CC(C)(CC)OC3 (configuration not stated) -20.3%
O=C(Nc1cc(-c2ccccc2F)nn1-c1ccccc1)c1ccccc1Br -15%
O=C(Nc1cc(-c2ccc(Cl)cc2)no1)c1ccc(F)cc1 2.74%
CCCSCCCNC(=O)CN1C(=O)COc2ccc(S(=O)(=O)N3CCCC3)cc21 -14.8%
COCCc1nn2c(=O)cc(COC(=O)c3ccccc3C)nc2s1 8.94%
Cc1ccc(C)c(N2CCN(C(=O)c3ccc4c(=O)n(CCc5ccccc5)c(=O)[nH]c4c3)CC2)c1 -9.06%
O=C1Nc2ccc(I)cc2/C1=C/c1cc(Br)c(O)c(Br)c1 -22.8%
O=C(COc1ccc(F)cc1)Nc1ccccc1C(=O)OCc1cc(=O)n2ccsc2n1 1.5%
CCOC(=O)c1[nH]c2c(c1Cc1ccccc1OC)C(=O)CC(c1ccccc1)C2 (configuration not stated) -25.9%
CCCCn1c(=O)c2oc3ccccc3c2n(Cc2ccccc2C)c1=O -22.9%
COc1cc(NC(=O)C2=CC(c3ccco3)=NS(=O)(=O)N2C)cc(OC)c1OC -10.2%
NC(=O)c1ccccc1NC(=O)CN1c2ccccc2S(=O)(=O)c2ccccc21 7.1%
Cc1nc(-c2ccccc2)sc1CCNC(=O)C(=O)Nc1ccc(F)c(Cl)c1 2.18%
CCc1ccc(-n2nnc(-c3nc(-c4ccc(C)cc4)no3)c2N)cc1 10.6%
COc1cc(Cl)c(C)cc1NC(=O)Cn1c2ncccc2c(=O)n1-c1ccccc1 1.99%
COC(=O)c1c(NC(=O)COc2ccc(Cl)cc2)sc(C)c1C -12.1%
COCc1cc(C)nc2c1C(=O)NC(c1ccc(Br)cc1)N2Cc1ccccc1 (configuration not stated) 25%
COc1cccc(N2CCN(C(=O)Cn3nc(C)n4c(cc5c(OC)cccc54)c3=O)CC2)c1 -1.56%
O=C(Nc1sc2c(c1C(=O)NCc1ccccc1)CCCC2)c1cc(=O)c2ccccc2o1 1.15%
COc1nnc(-c2ccc(N3CCCCC3)c(NC(=O)c3ccccc3Cl)c2)c2ccccc12 -5.16%
CCc1ccc(NC(=O)C(=O)NCC(c2cccnc2)N2CCc3ccccc3C2)cc1 (configuration not stated) -21.5%
COc1ccc(Cl)cc1C(=O)NCc1nnnn1-c1ccccc1 -14.3%
O=C(NCc1ccc(Cl)cc1)C1CCN(c2ncnc3c2nc2n3CCCCC2)CC1 4.56%
CCc1ccc(NC(=O)CSc2nc3c(c(=O)[nH]2)CN(Cc2ccc(C)cc2)CC3)cc1 1.54%
CCOc1ccccc1C(=O)NCC(c1cccs1)S(=O)(=O)c1ccc(F)c(C)c1 (configuration not stated) -6.62%
CCCCNC(=O)c1ccccc1NC(=O)CN(c1ccccc1)S(=O)(=O)N(C)C 1.63%
O=C(CSc1nc(=O)n(Cc2ccco2)c2c1CCC2)Nc1ccccc1C(F)(F)F -4.95%
Cc1ccc2c(=O)cc(C(=O)Nc3ccc(S(=O)(=O)N4CCCCCC4)cc3)oc2c1 -0.445%
CCN(Cc1ccccc1)C(=O)Cn1c(=O)n(-c2ccc(Cl)cc2)c(=O)c2c(C)c(C)sc21 -3.39%
CCc1nnc(SCC(=O)N(CC)c2ccccc2)c2cc3oc(C)cc3n12 -15.2%
CC(=O)N1CCCc2cc(S(=O)(=O)N3CCC(C(=O)NCc4ccccc4)CC3)ccc21 3.6%
Cc1ccc(Cl)cc1N1CCN(C(=O)c2cc(S(=O)(=O)N3CCCC3)c[nH]2)CC1 -12.3%
